Experimental data published in the supplement of paper PMC4967469.
IC50 is the fitted dose that halves viability relative to control wells, and lower means more sensitive; where the fit passes the top or lowest dose, that dose stands as a limit. AUC, from the same fit, is the share of area under the viability curve across the 256-fold dose range; it is 1 without any effect and falls as sensitivity rises. A top dose marked as inferred comes from the curve model; the source does not state it.

What was measured:
Experiment in all cases: Viability of human cancer cell lines after 72 h of drug (GDSC screen)
KIN001-266 = compound: CCN1CCC(n2cc(CNc3cc(Cl)c4ncc(C#N)c(Nc5ccc(F)c(Cl)c5)c4c3)nn2)CC1 [KIN001-266]; details: top dose 20 µM; top dose inferred
Description: (§1)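 Human cancer cell lines in 384-well plates, medium with 10% serum, drug for 72 h over a 256-fold dose range (nine 2-fold or five 4-fold steps up to the top dose). Adherent lines were fixed and stained with the nucleic acid dye Syto60, suspension lines read with resazurin; signal relative to control wells, capped at 0 and 100%. One two-parameter sigmoid per drug and line, fitted in a mixed model over all curves with the slope shared within a line.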

CCT007093 = compound: O=C1/C(=C/c2cccs2)CC/C1=C\c1cccs1 [CCT007093]; details: top dose 6.6 µM; top dose inferred
Description: as §1

QL-XII-47 = compound: C=CC(=O)N1CCc2ccc(-n3c(=O)ccc4cnc5ccc(-c6cnn(C)c6)cc5c43)cc21 [QL-XII-47]; details: top dose 10.24 µM; top dose inferred
Description: as §1

BAY 61-3606 = compound: COc1ccc(-c2cc3nccn3c(Nc3ncccc3C(N)=O)n2)cc1OC [BAY 61-3606]; details: top dose 8 µM; top dose inferred
Description: as §1

Cell Line	AUC (KIN001-266)	IC50 (KIN001-266) [µM]	AUC (CCT007093)	IC50 (CCT007093) [µM]	AUC (QL-XII-47)	IC50 (QL-XII-47) [µM]	AUC (BAY 61-3606)	IC50 (BAY 61-3606) [µM]
COLO-668 (small cell lung carcinoma, adherent)	0.862	17.1	0.981	> 6.6	0.453	0.476	0.882	> 8
COLO-678 (large intestine, semi-adherent)	0.903	> 20	0.974	> 6.6	0.84	> 10.2	0.94	> 8
COLO-679 (melanoma, adherent)	0.969	> 20	0.908	> 6.6	0.617	1.4	0.834	6.11
COLO-680N (oesophagus, adherent)	0.984	> 20	0.973	> 6.6	0.638	1.66	0.887	> 8
COLO-684 (endometrium, suspension)	0.867	> 20	0.975	> 6.6	0.512	0.693	0.798	4.35
COLO-783 (melanoma, adherent)	0.983	> 20	0.987	> 6.6	0.964	> 10.2	0.991	> 8
COLO-800 (melanoma, adherent)	0.984	> 20	0.985	> 6.6	0.844	7	0.973	> 8
COLO-824 (breast, adherent)	0.847	15.1	0.986	> 6.6	0.865	9.32	0.902	> 8
COLO-829 (melanoma, adherent)	0.871	> 20	0.945	> 6.6	0.866	> 10.2	0.979	> 8
COR-L23 (large cell lung carcinoma, adherent)	0.751	6.43	0.977	> 6.6	0.63	1.45	0.748	2.52
COR-L88 (small cell lung carcinoma, adherent)	0.832	16.3	0.983	> 6.6	0.929	> 10.2	0.956	> 8
COR-L95 (small cell lung carcinoma, adherent)	0.935	> 20	0.987	> 6.6	0.52	0.732	0.934	> 8
COR-L105 (lung adenocarcinoma, adherent)	0.749	7.77	0.915	> 6.6	0.491	0.603	0.637	1.31
COR-L279 (small cell lung carcinoma, suspension)	0.966	> 20	0.987	> 6.6	0.774	3.58	0.832	4.35
CP50-MEL-B (melanoma, adherent)	0.836	13	0.981	> 6.6	0.985	> 10.2	0.896	> 8
CP66-MEL (melanoma, adherent)	0.941	> 20	0.985	> 6.6	0.936	> 10.2	0.985	> 8
CPC-N (small cell lung carcinoma, suspension)	0.911	> 20	0.983	> 6.6	0.929	> 10.2	0.891	> 8
CS1 (bone, adherent)	0.813	12.4	0.966	> 6.6	0.35	0.233	0.781	3.74
CTB-1 (B-cell lymphoma, suspension)	0.868	> 20	0.979	> 6.6	0.667	2.22	0.814	6.55
CTV-1 (acute myeloid leukaemia, suspension)	0.86	11.7	0.992	> 6.6	0.51	0.677	0.697	1.57
CW-2 (large intestine, adherent)	0.876	> 20	0.972	> 6.6	0.874	> 10.2	0.989	> 8
Ca9-22 (head and neck, adherent)	0.863	15.2	0.986	> 6.6	0.767	3.53	0.875	6.87
Ca-Ski (cervix, adherent)	0.798	10.9	0.983	> 6.6	0.433	0.409	0.814	5.02
CaR-1 (large intestine, adherent)	0.891	> 20	0.911	> 6.6	0.931	> 10.2	0.96	> 8
Calu-3 (lung adenocarcinoma, adherent)	0.947	> 20	0.983	> 6.6	0.837	9.49	0.915	> 8
Caov-4 (ovary, adherent)	0.813	17.8	0.98	> 6.6	0.498	0.63	0.947	> 8
Capan-2 (pancreas, adherent)	0.905	> 20	0.983	> 6.6	0.921	> 10.2	0.954	> 8
ChaGo-K-1 (non-small cell lung carcinoma, adherent)	0.919	> 20	0.893	> 6.6	0.647	1.76	0.96	> 8
D-263MG (glioma, adherent)	0.974	> 20	0.966	> 6.6	0.983	> 10.2	0.964	> 8
D-283MED (medulloblastoma, adherent)	0.948	> 20	0.984	> 6.6	0.991	> 10.2	0.909	> 8
